The results in this text go back to PMC12136788.

First the molecules themselves.
T1: UNK ZnF1-3 (human, UniProt Q9C0B0 31-174)
T1 sequence: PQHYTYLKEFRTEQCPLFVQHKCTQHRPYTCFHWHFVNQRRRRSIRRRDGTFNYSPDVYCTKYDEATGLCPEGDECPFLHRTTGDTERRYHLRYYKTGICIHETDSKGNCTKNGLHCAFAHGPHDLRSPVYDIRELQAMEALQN

B1: chr5:146773137:146773138:-_ENSG00000113657_ENST00000343218|hu_mus|FALSE|FALSE (ssRNA)
RNA: GGGAGUUCUACAGUCCGACGAUCCCAUGGAAAUUAACACACAUCAUAAUACAACACACAAUGCCCUUCUGCUCACCCCACCCACCCACCUCCCUAGUACACGUCCCACCCCAGCCCCUUUGUGCCCUCCAUCUUGCCCUGGGCCAACAGAGGAUUGAGCAUCA
B2: 135173520_135173640_5850_CDS_ENSG00000107290_ENST00000224140|human|control|control (ssRNA)
RNA: GGGAGUUCUACAGUCCGACGAUCUGGAUUCAGAACAGCUCUAGCCAGUUGGUUCCGACUACCCAACAGAGACAUGGCUUUCAACUUCCUUUGUGUAGUUACCAGAGAACUGAUUACAAUACAAUUCACAAGUUCGUUUAAAUUCAACAGAGGAUUGAGCAUCA
B3: chr2:22790581:22790582:+_ENSMUSG00000026784_ENSMUST00000139472|mus_mus|FALSE|FALSE (ssRNA)
RNA: GGGAGUUCUACAGUCCGACGAUCUAGACACUGUUGAGCGCACACUGAAAUCAUCGGGGGAUUAAGUGCCUUGAUCCCACUCCCCACAAAUCUGAUUAUACUGGUGUUAUGAUCAUCAAAUGUUUUAAUGCACACCUCCUUUGGCAACAGAGGAUUGAGCAUCA
B4: 80004202_80041456_112_5pUTR_ENSMUSG00000042428_ENSMUST00000044970|mouse|control|control (ssRNA)
RNA: GGGAGUUCUACAGUCCGACGAUCCACAGGCCAGCCAUACAGAACAUGAGAAAGAGCUUGUAGCGUCUCAUCUUCAUCCCAUCGUCCGCUGGGUCUCAGCAGCGGCGGUAGAAGCAGCGGCGGCGGCGGCUCCGGGGCCCCCGGCAACAGAGGAUUGAGCAUCA
B5: chr7:141450121:141450122:+_ENSG00000106028_ENST00000265304|hu_mus|hu_hu_hu_mus_True|98_108 (ssRNA)
RNA: GGGAGUUCUACAGUCCGACGAUCUCAUCCUUUCUACUCCUUCUCUUUUGUCUGGUCACUCAGAAAUAUAAUGUUAUCAGCUAUGAUUGUUGUUGCUUGCCGCCUCACAUUGUUUUUAUCCAUGUACUCGCCAUAGUCCACUUUCAACAGAGGAUUGAGCAUCA
B6: 5812188_5812979_1080_CDS_ENSG00000099219_ENST00000339450|human|control|control (ssRNA)
RNA: GGGAGUUCUACAGUCCGACGAUCUCCAUUCUCAAUAAAAGCUAAGUCUAUUCCUGGAAUGUUCCCAAAAUCCCUGUAGAUACGAAAGUCAGUAUCUGAAGGAAUGAUUCCACUCUGAAAAACCUCCUGAGCCACCACAGAAGCCAACAGAGGAUUGAGCAUCA

This is one part of the list.

This test concerns the target T1, UNK ZnF1-3. The test is described as follows: nsRBNS (natural sequence RNA bind-n-seq); RBNS binding buffer (assumed for nsRBNS): 25 mM Tris pH 7.5, 150 mM KCl, 3 mM MgCl2, 0.01% Triton X-100, 500 ug/ml BSA, 20 U/ml SUPERase-In, 4 C; UNK is unkempt and MSI1 is Musashi-1; names of the RNAs are library labels; protein concentration not given here; high values mean tight binding.
Consider B1, for which the binding signal was 0.481 enrichment R.

B2 returned a binding signal of 0.991 enrichment R.

As to B3, the binding signal worked out at 1.05 enrichment R.

The molecule B4 returned a binding signal of 1.57 enrichment R.

As to B5, the binding signal is 0.388 enrichment R.

On to B6, for which the binding signal was determined as 1.41 enrichment R.
